# The supplement of paper PMC12217912
# The other results are listed elsewhere or left out. Sequences were assembled here from the parent chain. Inactive controls read about 0.05.
# B1: TEV protease; numbered along this chain (parent)
# chain: MGESLFKGPRDYNPISSSICHLTNESDGHTTSLYGIGFGPFIITNKHLFRRNNGTLVVQSLHGVFKVKDTTTLQQHLVDGRDMIIIRMPKDFPPFPQKLKFREPQREERICLVTTNFQTKSMSSMVSDTSCTFPSGDGIFWKHWIQTKDGQCGSPLVSTRDGFIVGIHSASNFTNTNNYFTSVPKNFMELLTNQEAQQWVSGWRLNADSVLWGGHKVFMVKPEEPFQPVKEATQL
# Variants of: B1
# Experiment: raw area under fraction-flipped curve 0-4 h after induction (AUC4h, not background-subtracted), DNA-recorder readout of cleavage of the substrate (dimensionless); higher = more cleavage of the substrate by the protease variant
# Conditions: temperature: 34 °C; time window: 0-4 h after rhamnose induction
# 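Note: Bxb1 expression induced with 0.2% (w/v) L-rhamnose at OD600 near 0.5, cultures sampled hourly, flipped fraction per protease–substrate barcode pair counted by paired-end Illumina sequencing.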
variant,measurement,value
V183Y,area with substrate ECLYFQS,0.0828
same,area with substrate EGLYFQS,0.0574
same,area with substrate EILYFQS,0.0499
same,area with substrate EKLYFQS,0.076
same,area with substrate EMLYFQS,0.0763
same,area with substrate EPLYFQS,0.0813
same,area with substrate EQLYFQS,0.0828
same,area with substrate ERLYFQS,0.107
same,area with substrate ESLYFQS,0.0719
same,area with substrate ETLYFQS,0.0905
same,area with substrate EVLYFQS,0.0822
F187H,area with substrate ECLYFQS,0.0661
same,area with substrate EELYFQS,0.0765
same,area with substrate EFLYFQS,0.0489
same,area with substrate EGLYFQS,0.0628
same,area with substrate EHLYFQS,0.0659
same,area with substrate EILYFQS,0.0583
same,area with substrate EKLYFQS,0.0722
same,area with substrate ELLYFQS,0.0728
same,area with substrate EMLYFQS,0.0626
same,area with substrate ERLYFQS,0.0557
same,area with substrate ESLYFQS,0.0657
same,area with substrate ETLYFQS,0.0587
same,area with substrate EVLYFQS,0.0732
same,area with substrate EWLYFQS,0.0577
same,area with substrate EYLYFQS,0.0692
M188Y,area with substrate ECLYFQS,0.107
same,area with substrate EDLYFQS,0.109
same,area with substrate EFLYFQS,0.0867
same,area with substrate EGLYFQS,0.0925
same,area with substrate EHLYFQS,0.122
same,area with substrate EILYFQS,0.078
same,area with substrate EKLYFQS,0.108
same,area with substrate ELLYFQS,0.106
same,area with substrate EMLYFQS,0.124
same,area with substrate EQLYFQS,0.119
same,area with substrate ERLYFQS,0.0911
same,area with substrate ESLYFQS,0.114
same,area with substrate ETLYFQS,0.105
same,area with substrate EVLYFQS,0.0823
same,area with substrate EWLYFQS,0.0941
L190G,area with substrate ECLYFQS,0.0421
same,area with substrate EELYFQS,0.0868
same,area with substrate EFLYFQS,0.0793
same,area with substrate EGLYFQS,0.0793
same,area with substrate EILYFQS,0.0697
same,area with substrate EQLYFQS,0.0862
same,area with substrate ERLYFQS,0.0704
same,area with substrate ESLYFQS,0.0782
same,area with substrate EVLYFQS,0.0526
same,area with substrate EWLYFQS,0.0692
L190W,area with substrate ECLYFQS,0.0836
same,area with substrate EFLYFQS,0.0881
same,area with substrate EHLYFQS,0.0728
same,area with substrate EILYFQS,0.0625
same,area with substrate EMLYFQS,0.0467
same,area with substrate EPLYFQS,0.117
same,area with substrate EQLYFQS,0.109
same,area with substrate ERLYFQS,0.0611
same,area with substrate ESLYFQS,0.0674
same,area with substrate EVLYFQS,0.0703
same,area with substrate EYLYFQS,0.0778
Q194P,area with substrate ECLYFQS,0.0898
same,area with substrate EDLYFQS,0.162
same,area with substrate EELYFQS,0.138
same,area with substrate EILYFQS,0.0967
same,area with substrate EKLYFQS,0.123
same,area with substrate EMLYFQS,0.146
same,area with substrate EQLYFQS,0.106
same,area with substrate ERLYFQS,0.104
same,area with substrate ESLYFQS,0.064
same,area with substrate EVLYFQS,0.118
W199D,area with substrate ECLYFQS,0.0634
same,area with substrate EDLYFQS,0.0679
same,area with substrate EHLYFQS,0.0644
same,area with substrate EILYFQS,0.0629
same,area with substrate EKLYFQS,0.0707
same,area with substrate EMLYFQS,0.0826
same,area with substrate EQLYFQS,0.0691
same,area with substrate ERLYFQS,0.0569
same,area with substrate ESLYFQS,0.0612
same,area with substrate ETLYFQS,0.0643
same,area with substrate EVLYFQS,0.0692
same,area with substrate EWLYFQS,0.0656
G202L,area with substrate ECLYFQS,0.0596
same,area with substrate EELYFQS,0.0728
same,area with substrate EGLYFQS,0.0702
same,area with substrate EILYFQS,0.0676
same,area with substrate EKLYFQS,0.0572
same,area with substrate ELLYFQS,0.0581
same,area with substrate EMLYFQS,0.0659
same,area with substrate ERLYFQS,0.0643
same,area with substrate ESLYFQS,0.0638
same,area with substrate EVLYFQS,0.0612
same,area with substrate EYLYFQS,0.0668
R204Q,area with substrate ECLYFQS,0.122
same,area with substrate EDLYFQS,0.138
same,area with substrate EELYFQS,0.166
same,area with substrate EFLYFQS,0.0929
same,area with substrate EGLYFQS,0.103
same,area with substrate EHLYFQS,0.134
same,area with substrate EILYFQS,0.103
same,area with substrate EKLYFQS,0.114
same,area with substrate ELLYFQS,0.145
same,area with substrate EMLYFQS,0.0982
same,area with substrate EPLYFQS,0.144
same,area with substrate EQLYFQS,0.123
same,area with substrate ESLYFQS,0.122
same,area with substrate ETLYFQS,0.134
same,area with substrate EYLYFQS,0.152
L205E,area with substrate ECLYFQS,0.0813
same,area with substrate EFLYFQS,0.0745
same,area with substrate EHLYFQS,0.0874
same,area with substrate EILYFQS,0.0553
same,area with substrate EMLYFQS,0.0944
same,area with substrate ERLYFQS,0.0642
same,area with substrate ESLYFQS,0.078
same,area with substrate EWLYFQS,0.0742
A207V,area with substrate ECLYFQS,0.106
same,area with substrate EFLYFQS,0.0967
same,area with substrate EGLYFQS,0.126
same,area with substrate EHLYFQS,0.125
same,area with substrate EILYFQS,0.0966
same,area with substrate EKLYFQS,0.0844
same,area with substrate ELLYFQS,0.0957
same,area with substrate EMLYFQS,0.108
same,area with substrate ERLYFQS,0.108
same,area with substrate ESLYFQS,0.105
same,area with substrate ETLYFQS,0.126
same,area with substrate EVLYFQS,0.0899
same,area with substrate EYLYFQS,0.128
W212F,area with substrate ECLYFQS,0.131
same,area with substrate EDLYFQS,0.155
same,area with substrate EELYFQS,0.101
same,area with substrate EFLYFQS,0.0972
same,area with substrate EGLYFQS,0.104
same,area with substrate EILYFQS,0.112
same,area with substrate EKLYFQS,0.169
same,area with substrate EMLYFQS,0.128
same,area with substrate EQLYFQS,0.13
same,area with substrate ERLYFQS,0.122
same,area with substrate ESLYFQS,0.103
same,area with substrate EVLYFQS,0.109
same,area with substrate EYLYFQS,0.142
G213D,area with substrate ECLYFQS,0.0642
same,area with substrate EFLYFQS,0.0838
same,area with substrate EHLYFQS,0.0606
same,area with substrate EILYFQS,0.0756
same,area with substrate EKLYFQS,0.0786
same,area with substrate EMLYFQS,0.069
same,area with substrate EPLYFQS,0.075
same,area with substrate EQLYFQS,0.0807
same,area with substrate ERLYFQS,0.0781
same,area with substrate ESLYFQS,0.0561
same,area with substrate EVLYFQS,0.057
same,area with substrate EWLYFQS,0.0736
same,area with substrate EYLYFQS,0.0744
K221D,area with substrate ECLYFQS,0.0901
same,area with substrate EFLYFQS,0.101
same,area with substrate EGLYFQS,0.0589
same,area with substrate EILYFQS,0.0814
same,area with substrate EKLYFQS,0.0965
same,area with substrate EMLYFQS,0.0846
same,area with substrate EQLYFQS,0.103
same,area with substrate ERLYFQS,0.0739
same,area with substrate ESLYFQS,0.0919
same,area with substrate EVLYFQS,0.0667
